Assay results published in the supplement of paper PMC4967469.

Legend:
Assay in all cases: Viability of human cancer cell lines after 72 h of drug (GDSC screen)
VNLG/124 = compound: CCCC(=O)OCc1ccc(OC(=O)/C=C(C)/C=C/C=C(C)/C=C/C2=C(C)CCCC2(C)C)cc1 [VNLG/124]; details: top dose 5.12 µM; top dose inferred
Protocol: (§1)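 Human cancer cell lines in 384-well plates, medium with 10% serum, drug for 72 h over a 256-fold dose range (nine 2-fold or five 4-fold steps up to the top dose). Adherent lines were fixed and stained with the nucleic acid dye Syto60, suspension lines read with resazurin; signal relative to control wells, capped at 0 and 100%. One two-parameter sigmoid per drug and line, fitted in a mixed model over all curves with the slope shared within a line.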

Masitinib = compound: Cc1ccc(NC(=O)c2ccc(CN3CCN(C)CC3)cc2)cc1Nc1nc(-c2cccnc2)cs1 [Masitinib]; details: top dose 20 µM
Protocol: as §1

Elesclomol = compound: CN(NC(=O)CC(=O)NN(C)C(=S)c1ccccc1)C(=S)c1ccccc1 [Elesclomol]; details: top dose 0.2 µM; top dose inferred
Protocol: as §1

Tamoxifen = compound: CC/C(=C(\c1ccccc1)c1ccc(OCCN(C)C)cc1)c1ccccc1 [Tamoxifen]; details: top dose 5 µM
Protocol: as §1

OSI-930 = compound: O=C(Nc1ccc(OC(F)(F)F)cc1)c1sccc1NCc1ccnc2ccccc12 [OSI-930]; details: top dose 10.24 µM
Protocol: as §1

BX-912 = compound: O=C(Nc1cccc(Nc2ncc(Br)c(NCCc3cnc[nH]3)n2)c1)N1CCCC1 [BX-912]; details: top dose 10.24 µM; top dose inferred
Protocol: as §1

NSC-87877 = compound: O=S(=O)(O)c1ccc2cc(N=Nc3cc(S(=O)(=O)O)c4cccnc4c3O)ccc2c1 [NSC-87877]; details: top dose 16 µM; top dose inferred
Protocol: as §1

LAQ824 = compound: O=C(/C=C/c1ccc(CN(CCO)CCc2c[nH]c3ccccc23)cc1)NO [LAQ824]; details: top dose 1.024 µM; top dose inferred
Protocol: as §1

Bleomycin = compound: Cc1c(N)nc([C@H](CC(N)=O)NC[C@H](N)C(N)=O)nc1C(=O)N[C@H](C(=O)N[C@H](C)[C@@H](O)[C@H](C)C(=O)N[C@H](C(=O)NCCc1nc(-c2nc(C(=O)NCCC[S+](C)C)cs2)cs1)[C@@H](C)O)[C@@H](OC1OC(CO)C(O)C(O)C1OC1OC(CO)C(O)C(OC(N)=O)C1O)c1cnc[nH]1 [Bleomycin]
Protocol: as §1

[1] = top dose 50 µM, screen: GDSC drug entry 1378, top dose inferred
[2] = top dose 64 µM, screen: GDSC drug entry 190

Cell Line	AUC (VNLG/124)	IC50 (VNLG/124) [µM]	AUC (Masitinib)	IC50 (Masitinib) [µM]	AUC (Elesclomol)	IC50 (Elesclomol) [nM]	AUC (Tamoxifen)	IC50 (Tamoxifen) [µM]	AUC (OSI-930)	IC50 (OSI-930) [µM]	AUC (BX-912)	IC50 (BX-912) [µM]	AUC (NSC-87877)	IC50 (NSC-87877) [µM]	AUC (LAQ824)	IC50 (LAQ824) [nM]	AUC (Bleomycin; [1])	IC50 (Bleomycin; [1]) [µM]	AUC (Bleomycin; [2])	IC50 (Bleomycin; [2]) [µM]
NCI-H2023 (lung adenocarcinoma, adherent)	0.981	> 5.12	0.944	> 20	0.698	52.2	0.98	> 5	0.981	> 10.2	0.978	> 10.2	0.975	> 16	0.605	134	0.576	5.33	0.25	0.625
NCI-H2029 (small cell lung carcinoma, adherent)	0.989	> 5.12	0.968	> 20	0.981	> 200	0.992	> 5	0.991	> 10.2	0.932	> 10.2	0.988	> 16	0.666	176	0.959	> 50	0.939	> 64
NCI-H2081 (small cell lung carcinoma, suspension)	0.987	> 5.12	0.925	> 20	0.91	> 200	0.988	> 5	0.975	> 10.2	0.591	1.15	0.978	> 16	0.482	56.8	0.962	> 50	0.928	> 64
NCI-H2135 (non-small cell lung carcinoma, adherent)	0.973	> 5.12	0.932	> 20	0.951	> 200	0.987	> 5	0.972	> 10.2	0.922	> 10.2	0.975	> 16	0.521	73	0.976	> 50	0.46	3.13
NCI-H2172 (non-small cell lung carcinoma, adherent)	0.974	> 5.12	0.907	> 20	0.579	22.2	0.98	> 5	0.973	> 10.2	0.981	> 10.2	0.983	> 16	0.523	75.4	0.906	> 50		
NCI-H2227 (small cell lung carcinoma, semi-adherent)	0.92	> 5.12	0.899	> 20	0.859	> 200	0.968	> 5	0.977	> 10.2	0.222	0.0867	0.958	> 16	0.785	500	0.854	47.8	0.945	> 64
NCI-H2342 (lung adenocarcinoma, adherent)	0.984	> 5.12	0.974	> 20	0.703	49.9	0.965	> 5	0.975	> 10.2	0.972	> 10.2	0.979	> 16	0.453	47.1	0.77	20.9	0.069	< 0.25

IC50 is the fitted dose that halves viability relative to control wells, and lower means more sensitive; a limit (>, <) means that the fit lies beyond the doses tested. AUC is the area under the same curve over the 256-fold range up to the top dose, as a fraction; values near 1 show little effect. For part of these data: Any top dose called inferred is not printed in the source and was worked back from the curve model. For part of these data: Drugs with an entry number were screened twice under separate entries, and the two screens often disagree.
